PubChem BioAssay AID720708 (National Center for Advancing Translational Sciences (NCATS), 2013)
Out of some 360,000 compounds screened, about 660 (0.18%) were called active. The inconclusive results got no clear call from the source; some entries with a clear call stand among them for comparison. Calls follow the shape of the dose curve; as a rule, active = well fitted inhibition curve with a large enough effect; inconclusive = small, poorly fitted or top-dose-only effect; inactive = no such curve, though single readings can be large or run the other way. No potency is given beside an inconclusive call; the fits are too rough.

Biological target: Rap guanine nucleotide exchange factor 4 (Homo sapiens) (UniProt Q8WZA2)
Chain of UniProt Q8WZA2 (Q8WZA2 whole entry, looked up): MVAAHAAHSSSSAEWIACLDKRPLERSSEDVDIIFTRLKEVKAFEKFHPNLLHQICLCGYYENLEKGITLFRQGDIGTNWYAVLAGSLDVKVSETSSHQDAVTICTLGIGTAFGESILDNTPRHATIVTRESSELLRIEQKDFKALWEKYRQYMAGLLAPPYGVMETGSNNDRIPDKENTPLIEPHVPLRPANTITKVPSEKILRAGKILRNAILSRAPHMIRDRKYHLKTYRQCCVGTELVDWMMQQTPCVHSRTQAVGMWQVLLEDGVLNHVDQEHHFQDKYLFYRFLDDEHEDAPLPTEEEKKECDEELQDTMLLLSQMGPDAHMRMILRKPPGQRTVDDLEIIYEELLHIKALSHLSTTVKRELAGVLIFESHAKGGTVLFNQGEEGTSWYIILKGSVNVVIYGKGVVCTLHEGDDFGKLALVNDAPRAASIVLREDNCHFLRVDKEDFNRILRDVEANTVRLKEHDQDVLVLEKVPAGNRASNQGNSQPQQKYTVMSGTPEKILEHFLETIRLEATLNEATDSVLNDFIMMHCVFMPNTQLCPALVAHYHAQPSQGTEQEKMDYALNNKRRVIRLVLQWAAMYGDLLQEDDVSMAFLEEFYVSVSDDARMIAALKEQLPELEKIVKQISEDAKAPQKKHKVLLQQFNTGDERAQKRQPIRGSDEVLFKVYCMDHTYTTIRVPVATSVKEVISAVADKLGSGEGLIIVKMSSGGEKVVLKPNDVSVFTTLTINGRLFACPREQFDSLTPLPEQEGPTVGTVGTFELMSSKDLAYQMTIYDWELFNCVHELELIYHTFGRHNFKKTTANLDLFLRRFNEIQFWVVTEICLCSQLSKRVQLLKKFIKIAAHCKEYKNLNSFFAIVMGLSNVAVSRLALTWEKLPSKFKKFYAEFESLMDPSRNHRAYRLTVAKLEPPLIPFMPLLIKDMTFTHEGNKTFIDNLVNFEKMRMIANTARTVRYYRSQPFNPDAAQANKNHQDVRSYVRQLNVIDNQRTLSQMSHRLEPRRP
Test: qHTS for Antagonist of cAMP-regulated guanine nucleotide exchange factor 2 (EPAC2): primary screen; also: nearly all actives have a fitted effect of over 45% in size
Conditions: EPAC2 GEF exchange of Rap1B-BODIPY-GDP, fluorescence; activity, negative = inhibition: at 114 µM (top of the series) unless noted
Source text: In multi-cellular eukaryotic organisms, the effects of cAMP are transduced by two ubiquitously-expressed intracellular cAMP receptors, the classic protein kinase A/cAMP-dependent protein kinase (PKA/cAPK) and the more recently discovered exchange protein directly activated by cAMP/cAMP-regulated guanine nucleotide exchange factor (EPAC/cAMP-GEF). Both PKA and EPAC are ubiquitously expressed in all tissues, and an increase in intracellular cAMP levels will lead to the activation of both PKA and EPAC. Therefore, careful dissections of the individual role and relative contribution of EPAC and PKA within the overall cAMP signaling in various model systems are critical for further elucidating the mechanism of cAMP signaling. To date no EPAC-specific antagonists and agonist, as well as isoform-specific agonists have been reported, and developing EPAC-specific pharmacological probes to determine the physiological functions that EPAC play in the overall cAMP-mediated signaling remains a major challenge within the research field. Furthermore, identified regulators of EPAC may lead to new mechanism-based therapeutic strategies specifically targeting the EPAC / cAMP-signaling components as EPAC has been implicated to play important roles in major human pathological conditions such as diabetes, heart disease, and cancer.
This qHTS will be used to screen the Molecular Libraries Small Molecule Repository (MLSMR) as a concentration-titration series using the NCGC unique quantitative screening (qHTS) platform to find inhibitors for EPAC2. In addition, this assay will also be used as a counterscreen for the EPAC1 qHTS. This fluorescent based assay is developed and validated for EPAC2 that measures exchange using EPAC effector Rap1 complex with BODIPY-GDP, a GDP analog with a tethered fluorophores. Inhibitors are identified by monitoring the change in fluorescence signal as the exchanged free BODIPY-GDP has a reduced fluorescence compared to Rap1-bound BODIPY-GDP. Decrease in signal (inhibition) is the desired outcome for the EPAC2 antagonist while no activity in this assay is desired for the EPAC1 antagonist counterscreen.
NIH Chemical Genomics Center [NCGC]
NIH Molecular Libraries Probe Centers Network [MLPCN]
Assay Submitter (PI): Xiaodong Cheng, The University of Texas, Medical Branch
Briefly, three uL of reagents (100 nM EPAC2, 250 nM RAP1B-BODIPY-GDP, 50 uM GDP) were dispensed into a 1536-well Greiner black solid-bottom medium binding assay plate. Controls and test compounds (23 nL) were transferred to the plate via a Kalypsys pin tool equipped with a 1536-pin array. The plates were centrifuged at 1,000 rpm for 15 seconds followed by 5 minute incubation at room temperature. The assay plates were read at 5 minute intervals for 30 minutes in the ViewLux plate reader using 480nm excitation and 540nm emission filters. The results were normalized to the agonist positive control ATA and DMSO.
% is scaled to controls: 0 for no effect and ±100 for the full control effect; potency is read from the fitted curve at half-maximal effect; tags tell the direction and shape of the fitted curve.

Row | Compound | Potency | activity, negative = inhibition
1 | O=C(Nc1ccccc1)N1CCN(Cc2ccc(Cl)cc2)CC1 | inconclusive [inhibitor, full curve] | –
2 | Cc1cc(C)c(S(=O)(=O)NC2CC3CCC2C3)c(C)c1 (stereo not drawn) | inconclusive [inhibitor, partial curve, poor fit] | –
3 | COc1ccc(NC(=O)Nc2c(O)ccc3ccccc23)cc1 | inactive | –
4 | O=C(Nc1nccs1)c1ccc(NC(=O)c2ccco2)cc1 | inactive | –
5 | Cc1ccccc1C(=O)/C(C#N)=N/Nc1c(C)n(C)n(-c2ccccc2)c1=O | active: 79.4 µM | –
6 | CC(C)(C)n1nnnc1C(c1cccnc1)N(Cc1ccccc1)Cc1ccco1 (stereo not drawn) | inconclusive [inhibitor, single point] | –
7 | CCCCCCOC(=O)Nc1ccc(S(=O)(=O)Nc2cccc([N+](=O)[O-])c2)cc1 | inconclusive [inhibitor, single point] | –
8 | CC(C)(C)OC(=O)CNC(=O)c1nc[nH]c1C(=O)NCc1ccc(CNC(=O)OC(C)(C)C)cc1 | inconclusive [inhibitor, full curve, poor fit] | –
9 | CCOc1ccc(/C=N/NC(=O)c2csc(C)c2C)c(OCC)c1 | inconclusive [inhibitor, partial curve] | –
10 | CCOC(=O)C1=C(COc2ccccc2)NC(=O)NC1c1ccc(Br)cc1 (stereo not drawn) | inactive | –
11 | COc1ccc(CN2C(=O)c3cccc4cccc2c34)cc1F | inconclusive [inhibitor, full curve] | –
12 | COc1ncnc(-c2ccccc2)c1-c1ccccc1 | inconclusive [inhibitor, partial curve, poor fit] | –
13 | C1CCc2nc3c(nc2C1)CCCC3 | inactive | –
14 | COc1ccc(-c2c(-c3ccccc3OC)sc3ccccc23)cc1C=O | inconclusive [inhibitor, full curve, poor fit] | –
15 | Cc1ccc(S(=O)(=O)Nc2cc(C(C(=O)OC(C)C)C(=O)C(F)(F)F)c(O)c3ccccc23)c(C)c1 (stereo not drawn) | inconclusive [inhibitor, partial curve] | –
16 | CCc1nc2ccccc2c(=O)n1NC(=O)c1c(O)c2ccccc2n(CC)c1=O | inactive | –
17 | COC(=O)c1ccc2c(c1)N(Cc1ccccc1F)C(=O)c1ccccc1S2=O (stereo not drawn) | inconclusive [inhibitor, full curve] | –
18 | Cc1ccc2c(c1)sc(=NC(=O)c1cccs1)n2C | inconclusive [inhibitor, single point] | –
19 | CC(=O)c1cccc(NC(=O)C2Cc3c(-c4ccccc4)ccnc3O2)c1 (stereo not drawn) | inconclusive [inhibitor, single point] | –
20 | CC1=C(C(=O)OC2CCCCC2)C(c2ccco2)n2ncnc2N1 (stereo not drawn) | inconclusive [inhibitor, full curve] | –
21 | N/C(=N\S(=O)(=O)c1cc(C(F)(F)F)cc(C(F)(F)F)c1)c1cccs1 | inconclusive [inhibitor, full curve] | –
22 | COC(=O)C1=C(C)N(C)C(C)=C(C(=O)OC)C1c1cccc(Br)c1 | inconclusive [inhibitor, partial curve] | –
23 | CCOC(=O)CN1C(=O)c2ccccc2Sc2ncccc21 | inconclusive [inhibitor, partial curve] | –

Row | Compound | Potency | activity, negative = inhibition
24 | CCOC(=O)Cc1csc(NC(=O)Cn2c(=O)oc3ccccc32)n1 | inconclusive [inhibitor, single point] | –
25 | O=S(=O)(c1ccc2[nH]c3c(c2c1)CCCC3)N1CCCCC1 | inconclusive [inhibitor, partial curve, poor fit] | –
26 | CCCCC[C@H]1CN(Cc2ccc(OC)cc2)C(=O)[C@@H]1CC(=O)NCc1ccccc1 | inconclusive [inhibitor, partial curve] | –
27 | COc1ccc(C(=O)N(CCc2ccccc2)Cc2cccs2)c(OC)c1 | inconclusive [inhibitor, partial curve] | –
28 | O=C1NC(=S)S/C1=C\c1cc(Cl)ccc1Cl | active: 56.2 µM | –
29 | COc1cccc2cc(C(=O)N3CCCc4ccccc43)oc12 | inconclusive [inhibitor, partial curve] | –
30 | CCCCN=Cc1c(C)[nH]n(-c2ccccc2)c1=S | inactive | –
31 | Cc1cccc(CSc2ncnc3ccccc23)c1 | inconclusive [inhibitor, partial curve, poor fit] | –
32 | CC(C)(C)Cc1c(-c2ccco2)nc2ccc(Cl)cn12 | inconclusive [inhibitor, partial curve] | –
33 | C=CC(=O)N1C/C(=C/c2ccc(Cl)cc2)C(=O)/C(=C\c2ccc(Cl)cc2)C1 | inactive | –
34 | Oc1ccc2ccccc2c1CNc1ccc(Br)cc1 | inconclusive [inhibitor, partial curve] | –
35 | O=C(c1ccccc1F)N(Cc1ccccc1)Cc1ccccc1 | inconclusive [inhibitor, partial curve] | –
36 | CCc1ccc(NC(=O)c2sc3nc(C)nc(N4CCN(c5ccccn5)CC4)c3c2C)cc1 | inactive | –
37 | Cc1ccc(NS(=O)(=O)c2ccccc2F)cc1S(=O)(=O)N1CCCCC1 | inconclusive [inhibitor, partial curve] | –
38 | O=C(Cn1cc(C(F)(F)F)cc(Cl)c1=O)Nc1cccc(S(=O)(=O)N2CCCCC2)c1 | inconclusive [inhibitor, single point] | –
39 | O=C(Nc1ccc(F)cc1)c1cn(-c2ccccc2)nc1-c1ccncc1 | inactive | –
40 | O=C(O)c1ccc(CSc2nnc(COc3ccc(Cl)cc3Cl)o2)cc1 | inconclusive [inhibitor, partial curve] | –
41 | CCCCCCCCN1C(=O)[C@H](CC(=O)NCCCOCCCC)C[C@@]2(C(=O)OC)CCCCC=C12 | inconclusive [inhibitor, full curve] | –
42 | C=CS(=O)(=O)N(Cc1ccccc1Br)[C@H](CO)Cc1ccccc1 | inconclusive [inhibitor, full curve] | –
43 | CCNC(=O)C1(C)CCCN(Cc2ccc3ccccc3c2Br)C1 (stereo not drawn) | inconclusive [inhibitor, partial curve] | –
44 | CN1CCN(CCCNC(=O)c2ccc(/C=C3/Sc4ccccc4N(Cc4cccc(Cl)c4)C3=O)cc2)CC1 | inconclusive [inhibitor, partial curve] | –
45 | CC1(C(=O)NCc2ccccc2Br)CCN1Cc1c(F)cccc1F (stereo not drawn) | inconclusive [inhibitor, partial curve] | –
46 | O=C(CCc1ccccc1)Nc1ccc(S(=O)(=O)Nc2nccs2)cc1 | inconclusive [inhibitor, partial curve] | –

Row | Compound | Potency | activity, negative = inhibition
47 | CCc1cc2c(=O)n(C(C)C(=O)OC3CCCCC3)cnc2s1 (stereo not drawn) | – | inconclusive: -9.41% [inhibitor]
48 | CCCCCCCCSC1=CC(=O)C(OC)=C(OC)C1=O | inconclusive [inhibitor, partial curve] | –
49 | COc1ccc(OC)c(NC(=O)NNS(=O)(=O)c2ccc(C)cc2C)c1 | inactive | –
50 | Cc1occc1C(=O)NC1CCCN(Cc2ccc(Cl)cc2)C1 (stereo not drawn) | inactive | –
51 | COc1cc2c(cc1OC)-c1nnc(-c3cccs3)n1C(C)(C)C2 | inconclusive [inhibitor, single point] | –
52 | O=C(Nc1ccc([N+](=O)[O-])cc1Cl)c1cc(Cl)ccc1O | inconclusive [inhibitor, partial curve] | –
53 | OC(COc1ccc(Cl)cc1)CN1CCC(Cc2ccccc2)CC1 (stereo not drawn) | inactive | –
54 | O=C1CN(C(=O)c2ccc(Br)o2)C(c2ccccc2)c2cc(F)ccc2N1 (stereo not drawn) | inconclusive [inhibitor, partial curve] | –
55 | COc1ccc(-c2nnc(-c3cc(OC)c(OC)c(OC)c3)o2)cc1OC | inconclusive [inhibitor, partial curve] | –
56 | COc1ccc(NC(=O)c2cnn(-c3ccccc3)c2C)cc1OC | inactive | –
57 | COc1ccccc1C(CNC(=O)c1ccc(C)c(S(=O)(=O)N2CCCCC2)c1)N(C)C (stereo not drawn) | inactive | –
58 | CC(C)(C)OC(=O)COc1cc(OCC(=O)OC(C)(C)C)c2c(=O)cc(-c3ccccc3)oc2c1 | inconclusive [inhibitor, full curve, poor fit] | –
59 | Cc1[nH]c2ccc(F)cc2c1CCN(Cc1ccncc1)C(=S)Nc1ccccc1 | inconclusive [inhibitor, single point] | –
60 | O=C(CN1C(=O)CCC1=O)Nc1nc(-c2ccc3ccccc3c2)cs1 | inactive | –
61 | CCCCCn1c(NCc2ccco2)nc2ccccc21 | inconclusive [inhibitor, partial curve, poor fit] | –
62 | COc1ccc(Cl)cc1NC(=O)CN1c2ccccc2CC1C (stereo not drawn) | inconclusive [inhibitor, partial curve] | –
63 | CN1C(=O)N(C)c2ccc(Br)c3cccc1c23 | – | inconclusive: -10.2% [inhibitor]
64 | COc1cc(CNCCNC(=O)c2nonc2N)ccc1OCc1ccc(Cl)cc1 | inactive | –
65 | CCCCn1nnnc1C(c1cc2ccccc2o1)N1CCN(CC(=O)N2CCCC2)CC1 (stereo not drawn) | inconclusive [inhibitor, partial curve] | –
66 | O=C(N/N=C/c1ccccn1)c1cc(C2CC2)[nH]n1 | inactive | –
67 | Cc1ccc(C)c(-c2ccc(=O)n(Cc3ccc(F)cc3Cl)n2)c1 | inconclusive [inhibitor, partial curve] | –
68 | O=Cc1ccc(-c2c(-c3ccccc3)oc3c2C(OCCCCO)CCC3)o1 (stereo not drawn) | inconclusive [inhibitor, single point] | –
